# Laboratory results from the supplement of paper PMC12217912.
# The other results are listed elsewhere or left out. Sequences were assembled here from the parent chain. Values near 0.05 are background.
# B1: TEV protease; numbered along this chain (parent)
# chain: MGESLFKGPRDYNPISSSICHLTNESDGHTTSLYGIGFGPFIITNKHLFRRNNGTLVVQSLHGVFKVKDTTTLQQHLVDGRDMIIIRMPKDFPPFPQKLKFREPQREERICLVTTNFQTKSMSSMVSDTSCTFPSGDGIFWKHWIQTKDGQCGSPLVSTRDGFIVGIHSASNFTNTNNYFTSVPKNFMELLTNQEAQQWVSGWRLNADSVLWGGHKVFMVKPEEPFQPVKEATQL
# Variants of: B1
# Experiment: raw area under fraction-flipped curve 0-4 h after induction (AUC4h, not background-subtracted), DNA-recorder readout of cleavage of the substrate (dimensionless); higher = more cleavage of the substrate by the protease variant
# Conditions: temperature: 34 °C; time window: 0-4 h after rhamnose induction
# Protocol: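 In vivo DNA recorder in E. coli TOP10(DE3) ΔrhaA at 34 °C. Each TEVp single-site mutant (parent TEVp 0) is paired with a single-site variant of the 7-mer TEVs (canonical ENLYFQ|S). The substrate sits between flexible linkers in a Bxb1-sfGFP-TEVs-SsrA fusion, so cleavage stabilises Bxb1 and speeds flipping of a recombination array, read by NGS. The value is the raw area under the fraction-flipped curve over 0-4 h after rhamnose induction (AUC4h), with ≥20 reads per time point. It is not background-subtracted; inactive controls average about 0.047.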
# 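Note: Bxb1 expression induced with 0.2% (w/v) L-rhamnose at OD600 near 0.5, cultures sampled hourly, flipped fraction per protease–substrate barcode pair counted by paired-end Illumina sequencing.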
Variant,area with substrate ENLYFQA,area with substrate ENLYFQC,area with substrate ENLYFQD,area with substrate ENLYFQF,area with substrate ENLYFQI,area with substrate ENLYFQK,area with substrate ENLYFQL,area with substrate ENLYFQM,area with substrate ENLYFQN,area with substrate ENLYFQR,area with substrate ENLYFQS,area with substrate ENLYFQT,area with substrate ENLYFQW,area with substrate ENLYFQG,area with substrate ENLYFQQ,area with substrate ENLYFQV,area with substrate ENLYFQY,area with substrate ENLYFQP,area with substrate ENLYFQH,area with substrate ENLYFQE
M188P,0.0707,0.0948,0.0713,0.0722,0.0603,0.0598,0.0587,0.0895,0.0733,0.0535,0.0975,0.0476,0.0804,,,,,,,
L190M,0.0904,0.113,0.0501,,,0.0699,,0.091,0.0775,0.0573,0.102,,0.0625,0.108,0.0684,0.0662,0.0437,,,
L190Y,0.0693,0.122,0.0853,0.0602,,0.0601,0.061,0.0764,,0.0688,0.0857,0.0648,0.0743,0.0678,,0.0534,0.0698,0.0531,,
L191F,0.0993,0.136,,0.0778,0.055,0.052,,0.0905,0.0797,0.0587,0.0919,0.063,0.0759,0.0855,,0.0543,0.0696,0.0629,0.108,
L191K,0.0779,,0.0537,0.0599,0.0468,0.0582,0.0567,0.0499,0.0459,0.0615,0.0573,0.0557,,0.099,,0.0352,0.0537,0.0707,0.0563,
T192M,0.101,0.111,,0.0744,0.0659,0.0648,0.0526,0.0788,0.12,0.0627,0.0988,0.0702,,0.0878,0.0834,0.076,0.0911,0.0569,0.0726,0.0522
Q194F,0.0753,0.0826,,,0.0553,,0.0566,,0.0726,0.0566,0.102,0.0646,0.0579,,0.0649,0.0611,,0.0465,0.0638,0.0851
E195K,0.103,0.101,0.0774,0.0779,0.0463,0.0652,0.0527,0.0833,0.0734,0.0566,0.0988,0.0624,0.0639,0.121,0.0706,0.0825,0.0742,0.0713,,0.0917
Q197D,0.0842,0.0856,,,,0.0657,0.0637,,,0.0601,0.0861,0.0421,,0.097,0.0697,,0.0784,0.0647,0.0711,
W199E,0.0459,0.0852,0.0738,0.0597,0.0628,0.0437,,0.0624,0.056,0.0608,0.0626,0.0707,,0.0548,,,,,0.0659,
W199N,0.0817,0.0689,,0.0561,,0.0651,0.0558,,0.0488,0.0522,0.0665,0.0563,,,,0.0957,,,0.0673,
G202Q,0.0639,0.0776,0.0603,0.0672,0.0617,,0.0619,0.0622,0.0532,0.0566,0.0704,0.0616,0.0649,,,0.0519,0.0532,0.0515,,
